Results on 89 compounds are retold here after PMC4336329 (PLoS ONE, 2015).

SMILES strings stand for the structures. Screen size: about 310,000 compounds; about 14,000 (4.5%) showed an effect of 50% or more. The effect is printed as a negative number. The list shows a part of the results.
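Also: peak tail current of the secondary pulse compared with the same well before compound.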

Sequence of human ether-à-go-go-related gene (hERG) potassium channel (Q12809 whole entry, looked up): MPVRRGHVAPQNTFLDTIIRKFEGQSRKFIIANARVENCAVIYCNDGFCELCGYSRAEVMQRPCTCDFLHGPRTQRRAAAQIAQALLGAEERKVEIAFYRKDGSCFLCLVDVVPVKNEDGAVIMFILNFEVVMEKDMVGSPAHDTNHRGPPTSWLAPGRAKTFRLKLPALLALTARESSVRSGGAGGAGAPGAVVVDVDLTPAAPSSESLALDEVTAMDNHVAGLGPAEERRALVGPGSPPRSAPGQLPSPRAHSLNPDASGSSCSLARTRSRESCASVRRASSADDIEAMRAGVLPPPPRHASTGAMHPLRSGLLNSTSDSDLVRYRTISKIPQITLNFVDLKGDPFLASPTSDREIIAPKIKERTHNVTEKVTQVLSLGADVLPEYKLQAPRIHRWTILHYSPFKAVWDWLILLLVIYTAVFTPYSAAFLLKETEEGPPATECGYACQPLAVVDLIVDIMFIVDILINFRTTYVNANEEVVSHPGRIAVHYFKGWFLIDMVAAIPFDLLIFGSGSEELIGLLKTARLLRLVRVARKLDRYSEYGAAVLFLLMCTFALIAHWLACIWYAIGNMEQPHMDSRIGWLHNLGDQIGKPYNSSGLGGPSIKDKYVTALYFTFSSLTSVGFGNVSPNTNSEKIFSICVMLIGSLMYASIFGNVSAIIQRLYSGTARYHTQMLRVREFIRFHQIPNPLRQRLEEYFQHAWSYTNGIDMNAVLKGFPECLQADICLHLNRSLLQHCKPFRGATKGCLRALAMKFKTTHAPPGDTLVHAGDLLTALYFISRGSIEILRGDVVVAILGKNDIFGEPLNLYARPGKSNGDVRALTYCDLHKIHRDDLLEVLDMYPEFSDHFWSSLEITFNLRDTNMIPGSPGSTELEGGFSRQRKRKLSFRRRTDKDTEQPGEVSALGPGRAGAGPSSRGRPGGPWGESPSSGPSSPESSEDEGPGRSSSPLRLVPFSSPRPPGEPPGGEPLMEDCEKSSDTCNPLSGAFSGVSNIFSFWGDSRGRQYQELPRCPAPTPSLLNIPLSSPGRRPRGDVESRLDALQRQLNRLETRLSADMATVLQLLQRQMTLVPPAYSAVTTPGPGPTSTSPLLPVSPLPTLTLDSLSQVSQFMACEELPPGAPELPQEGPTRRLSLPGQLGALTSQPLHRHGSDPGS

This experiment addresses human ether-à-go-go-related gene (hERG) potassium channel (human, UniProt Q12809). Briefly: primary screen, population patch clamp on CHO cells stably expressing hERG.
On to `COC(=O)CCC(=O)Nc1ccc(Cl)c(Cl)c1`, for which the “hERG current change (%, negative = inhibition) at 10uM” value is recorded as -1.38%.
On to `COc1ccc(NC(=O)CC(C(=O)O)C(C)c2ccccc2)cc1` (centres unmarked), for which the “hERG current change (%, negative = inhibition) at 10uM” value is given as 16.6%.
On to `CCCc1cc(Nc2cccc(OCC)c2)n2ncnc2n1`, for which the “hERG current change (%, negative = inhibition) at 10uM” value was -68%.
Turning to `Brc1ccc(-c2csc(N3CCC(c4ccccc4)C3)n2)cc1` (centres unmarked), the “hERG current change (%, negative = inhibition) at 10uM” value is listed as -2.28%.
Regarding `CN(CC(=O)Nc1ccc(Cl)cc1)CC(=O)Nc1cccc(Br)c1`, the “hERG current change (%, negative = inhibition) at 10uM” value is given as -13.1%.
Next, `COC(=O)C1=C(N)OC2=C(C(=O)CCC2)C1c1ccc2c(c1)OCO2` (centres unmarked): 10.6%.
With `O=C1CSC(c2cn(-c3ccccc3)nc2-c2cc3ccccc3o2)N1Cc1ccccc1` (centres unmarked), the “hERG current change (%, negative = inhibition) at 10uM” value is -6.82%.
Take `COc1cc(OC)c(C2=NOC(C(=O)NCc3cccs3)C2)cc1Cl` (centres unmarked): the “hERG current change (%, negative = inhibition) at 10uM” value is given as -0.985%.
As to `CCOc1ccc(-n2c(COc3ccc(C)cc3)nnc2SCC(N)=O)cc1`, the “hERG current change (%, negative = inhibition) at 10uM” value was -25.9%.
Next, `CC(C)c1nc2oc3ccccc3c(=O)c2c(=O)n1-c1ccccc1`: -2.83%; `O=C(CCc1nnc2ccc(NCc3ccccc3)nn12)NCC1CCN(C2CCCC2)C1` (centres unmarked): 14.2%.
As for `CC(=O)Cn1cnc2c(sc3nc(C)cc(C)c32)c1=O`, the “hERG current change (%, negative = inhibition) at 10uM” value is on record as 16.1%.
Next, `O=C(/C=C/c1ccco1)Oc1ccc(C(=S)N2CCOCC2)cc1`: 14.4%; `COc1cccc(OCC(=O)NNC(=O)Cc2cccs2)c1`: 29%; `O=C(NCc1cccs1)c1cc2c(s1)CCCC2`: -9.4%.
Take `O=C(Cn1nnc(-c2ccccc2F)n1)OCC(=O)c1ccccc1`: the “hERG current change (%, negative = inhibition) at 10uM” value is listed as 10.9%.
Next, `COc1ccc(/C=C\C(=O)CC(O)(c2ccccc2)C(F)(F)F)cc1` (centres unmarked): 3.32%; `CCN(CC)CCNC(=O)Cn1cnc2sc(C)c(S(=O)(=O)N3CC(C)CC(C)C3)c2c1=O` (centres unmarked): 24.8%; `O=C(COC(=O)c1ccc2ccccc2c1O)NCC(F)(F)F`: -3.05%.
Next, `CC(C(=O)N1CCN(C)CC1)N1C(=O)c2ccccc2C1=O` (centres unmarked): 15.9%; `Cc1cc(C)n(C(=O)c2ccc(Cl)c(F)c2F)n1`: 1.58%.
As for `COc1ccc(OC)c(C(=O)c2ccc(C(=O)N3CCN(Cc4csc(C)n4)CC3)cc2)c1`, the “hERG current change (%, negative = inhibition) at 10uM” value was determined as 15.8%.
Next, `O=[N+]([O-])c1cccc(/C=N\N2CCN(c3ccc(Cl)cc3)CC2)c1`: 7.38%.
In the case of `CC(=O)Oc1ccc(-c2ccc(C(=O)O)cc2)cc1`, the “hERG current change (%, negative = inhibition) at 10uM” value worked out at 0.515%.
In the case of `CCN(CC)C(=O)c1ccc(NC(=O)c2cccc(C(F)(F)F)c2)cc1`, the “hERG current change (%, negative = inhibition) at 10uM” value worked out at 4.47%.
Consider `O=C1NC(CCc2ccccc2)C(=O)N1Cc1ccc(Br)cc1` (centres unmarked), for which the “hERG current change (%, negative = inhibition) at 10uM” value is on record as -12.9%.
Regarding `O=C(Cc1c(O)c2ccccc2[nH]c1=O)NCc1cccc(F)c1`, the “hERG current change (%, negative = inhibition) at 10uM” value is on record as -12.7%.
Next, `O=[N+]([O-])c1ccc(N2CCN(Cc3ccc4c(c3)OCO4)CC2)nc1`: -54.4%; `COc1cc(/C=C/C(=O)OCC(=O)Nc2ccccc2Cl)cc(OC)c1OC`: 17.1%.
For the compound `COc1ccccc1-c1nc(SCC(=O)N2CCOCC2)n[nH]1`, the “hERG current change (%, negative = inhibition) at 10uM” value came out at 16.9%.
Consider `CCOc1ccccc1-n1c(SCC(N)=O)nnc1-c1ccco1`, for which the “hERG current change (%, negative = inhibition) at 10uM” value was -22.7%.
As for `CC(C)C(c1nnnn1C1CCCC1)N1CCC(C(N)=O)CC1` (centres unmarked), the “hERG current change (%, negative = inhibition) at 10uM” value came out at 5.38%.
Next, `CCC(CO)Nc1ncnc2c1cnn2-c1ccc(Cl)cc1` (centres unmarked): -5.24%; `C/C(=N\NC(=O)c1nc(C)cc(C)n1)c1ccccc1`: -4.12%.
Regarding `CN(C)CCCNC(=O)/C(=C\C=C\c1ccccc1)NC(=O)c1ccc([N+](=O)[O-])cc1`, the “hERG current change (%, negative = inhibition) at 10uM” value is given as -71.2%.
With `CCOc1ccc(NC(=O)COc2ccc(C(=O)NCc3cccnc3)cc2OC)cc1`, the “hERG current change (%, negative = inhibition) at 10uM” value was determined as 12.2%.
Next, `CCC(C)[C@H]1CN=C(N)N1CC1CCCCC1` (some centres unmarked): 12.6%; `N#CC1=C(N)Nc2ncnn2C1c1ccc([N+](=O)[O-])cc1` (centres unmarked): -29%; `O=[N+]([O-])c1ncn(Cc2ccccc2Cl)n1`: 13%.
Next, `COc1ccccc1N1CCN(C(=O)c2ccc(N(C)S(=O)(=O)c3ccccc3)cc2)CC1`: -35.4%; `C=CCNC(=S)NNC(=O)COc1ccc2cc(Br)ccc2c1`: 20.2%; `O=C(c1ccccc1)c1ccc(OCC(=O)N2CCOCC2)cc1`: 2.71%.
In the case of `CN1C(=O)C(O)(CC(=O)/C=C\c2ccc3c(c2)OCO3)c2ccccc21` (centres unmarked), the “hERG current change (%, negative = inhibition) at 10uM” value was 7.56%.
In the case of `Cc1csc(CNC(=O)c2ccc(OC3CCN(CCc4ccccc4)CC3)cc2)n1`, the “hERG current change (%, negative = inhibition) at 10uM” value is given as -55.3%.
Next, `CCN(CC)c1ccc(NC(=O)c2ccccc2F)cc1`: -9.39%; `COc1ccccc1NC(=O)c1ccc(NC(=O)CN2C(=O)CN(C)C2=O)cc1`: 1.06%; `O=C(O)COc1ccc(Nc2ccccc2)cc1`: 3.34%.
Next, `N#Cc1c2ncn(CC(=O)c3ccc(Br)cc3)c(=O)c2c2n1CCC2`: -6.58%; `CC(/C=C1\SC(=S)N(NC(=O)c2ccccc2C)C1=O)=C\c1ccccc1`: 26%; `Cc1ccc2oc(C(=O)N3CCC(C(N)=O)(N4CCCCC4)CC3)c(C)c2c1`: -27%.
Next, `O=C(O)CC(CNS(=O)(=O)c1cccc2nsnc12)c1ccccc1` (centres unmarked): 11.8%; `CN(C)C(=O)c1c(C(F)(F)F)nn(C)c1Cl`: 15.2%; `O=C(O)c1ccc2c(=O)n(-c3ccc(F)c(Cl)c3)c(=S)[nH]c2c1`: 27.5%.
For `Cc1ccccc1C(=O)Oc1ccc2ccc(O)cc2c1`, the “hERG current change (%, negative = inhibition) at 10uM” value came to 14.5%.
For the compound `CN(C1=NC(=O)C(CC(=O)O)S1)c1ccc(O)cc1` (centres unmarked), the “hERG current change (%, negative = inhibition) at 10uM” value was 6.54%.
With `O=C(CNC(=O)c1ccccn1)N=Nc1c(O)[nH]c2ccccc12`, the “hERG current change (%, negative = inhibition) at 10uM” value was found to be 13.7%.
For the compound `CN(C)c1ccc(NC(=O)CN2CCC(NC(=O)C3CCCCC3)CC2)cc1`, the “hERG current change (%, negative = inhibition) at 10uM” value is given as 8.23%.
Next, `O=C(Cn1c(=O)oc2ccccc21)Nc1ccccc1C(F)(F)F`: 21.6%.
Next, `O=C1Nc2ccc([N+](=O)[O-])cc2OC1CCN1CCOCC1` (centres unmarked): 6.19%; `COc1ccccc1/C=C(\NC(=O)c1ccc(OC)c(OC)c1)C(=O)Nc1cc([N+](=O)[O-])ccc1C`: 9.68%; `O=C(c1ccco1)N1CCN(C(=O)c2cnn(-c3ccc(Cl)cc3)c2C2CCNCC2)CC1`: 15%.
Next, `COCCn1c(SCC(=O)NNC(=O)c2cc(Cl)ccc2OC)nnc1-c1ccncc1`: -7.79%.
As for `COc1ccc(C(=S)N2CCCC2)cc1Br`, the “hERG current change (%, negative = inhibition) at 10uM” value is recorded as -7.39%.
For the compound `CCCOc1ccc(C(=O)Nc2ccc(C)cc2[N+](=O)[O-])cc1`, the “hERG current change (%, negative = inhibition) at 10uM” value stood at 7.82%.
Next, `Cc1occc1C(=O)Nc1nn[nH]n1`: 10.1%; `CCCCc1cc(=O)oc2c(CN3CCCC3)c(O)c(Cl)cc12`: -20.9%; `CCCn1c(N)c(N(CCOC)C(=O)CSc2ccccc2)c(=O)[nH]c1=O`: 13%.
Turning to `COc1cccc(CNC(=O)CCNC(=O)N2CCn3c2nc2ccccc23)c1`, the “hERG current change (%, negative = inhibition) at 10uM” value is -3.38%.
Next, `CC(C)Nc1ccc(C(CC(N)=O)NC(=O)Cc2ccc(Cl)cc2)cc1[N+](=O)[O-]` (centres unmarked): -4.52%.
Consider `CC1=C(C(=O)OC2CCCCC2)C(c2ccc(O)cc2)NC(=O)N1` (centres unmarked), for which the “hERG current change (%, negative = inhibition) at 10uM” value turned out to be 6.09%.
Next, `CN(c1ccc(C(=O)NCCSCc2ccccc2)cc1)S(=O)(=O)c1ccccc1`: -4.36%.
Next, `Cc1ccc(C)c(S(=O)(=O)N2CCCOC2CNC(=O)C(=O)NCc2cccnc2)c1` (centres unmarked): -8.34%; `CCc1ccc(-n2c(SCc3c(C)noc3C)nnc2-c2ccncc2)cc1`: -36.6%.
Next, `Cc1nn(C)cc1CNC(=O)c1ccccc1Br`: -0.56%.
Consider `O=C(O)c1cc(-c2ccc(Cl)s2)[nH]n1`, for which the “hERG current change (%, negative = inhibition) at 10uM” value was -6.77%.
Next, `C=CCOc1ccc(/C=C/C(=O)OCC(=O)NCCC2=CCCCC2)cc1`: 16.9%; `Cc1ccccc1-n1c(N)c(C(=O)Nc2ccc(F)cc2)sc1=S`: 17.1%; `Cl.O=C(CCN1CCOCC1)c1ccccc1`: 3.53%.
As to `CCOc1ccccc1C(=O)Nc1cnn(Cc2ccc(F)cc2)c1`, the “hERG current change (%, negative = inhibition) at 10uM” value was -58.8%.
Take `N#Cc1ccccc1Sc1ccccc1C(=O)Nc1ccccc1`: the “hERG current change (%, negative = inhibition) at 10uM” value is given as 0.339%.
Next, `COc1ccc(CCNC(=O)C2CCN(S(=O)(=O)c3cc(OC)ccc3OC)CC2)cc1`: -3.08%; `COCCNC(=O)C(c1cccs1)N(C(=O)Cn1nnc2ccccc21)c1ccccc1` (centres unmarked): -5.43%; `Cc1cccc(NC(=S)NCC(c2cccnc2)N(C)C)c1` (centres unmarked): 9.11%.
For `COc1ccccc1OCC(=O)Nc1ccc(S(=O)(=O)Nc2onc(C)c2C)cc1`, the “hERG current change (%, negative = inhibition) at 10uM” value was 10.5%.
As for `CC(=O)Nc1ccccc1-c1nc2ccc(C(=O)N3CCN(c4cccc(C)c4)C(C)C3)cc2[nH]c1=O` (centres unmarked), the “hERG current change (%, negative = inhibition) at 10uM” value is reported as -17%.
Next, `CN1CCN(c2nc(N)c(Br)c(Cl)n2)CC1`: -1.52%; `Cc1ccc(S(=O)(=O)Nc2ccc3nc(C)sc3c2)c(C)c1`: -21.7%; `O=C(Cn1ccc2cc(S(=O)(=O)N3CCCC3)ccc21)NCc1ccccc1`: 21.3%.
Next, `CC(C)Nc1nc(NNc2nc(Cl)nc(NC(C)(C)C)n2)nc(NC(C)C)n1`: 10.1%.
